Results published in ChEMBL document CHEMBL4888484, “Replenishing the malaria drug discovery pipeline: Screening and hit evaluation of the MMV Hit Generation Library 1 (HGL1) against asexual blood stage Plasmodium falciparum ,using a nano luciferase reporter read-out” (2022).
Out of some 150,000 compounds screened, about 540 (0.36%) showed an effect of 50% or more. Some of the results follow.

What follows are molecules tested on Plasmodium falciparum (assay: Primary screen in NF54 nanoGlo assay, in single point, at 2uM, 72h; a lower Z score goes with more inhibition). Conditions: timepoint 72 hour.
Type: functional, Erythrocyte
For CC1CCCC(C(=O)N2CCC3(C2)NC(=O)NC3=O)C1 (stereo not given), the “% Inhibition” value was 3% and the Z score was -0.37.
With Cc1c(Br)cccc1C[C@H](CO)CNC(=O)CC1CC1 the “% Inhibition” value was -25% and the Z score was 2.97.
For CCC(=O)N1CCC(NC(C)c2nc(C)no2)C(CC)C1 (stereo not given), the “% Inhibition” value was 5% and the Z score was -0.85.
In the case of Cc1nc(C)c(C(=O)N2CCc3cnccc32)o1, the “% Inhibition” value is reported as 4% and the Z score is reported as -0.53.
With CC(O)CN1CCN(C(=O)c2ccncc2Cl)C(C)C1 (stereo not given) the “% Inhibition” value was 4% and the Z score was -0.53.
CC(=O)c1ccc(N2CCN(C(=O)C3CCOCC3)CC2)cc1 was tested, and the “% Inhibition” value was 0% and the Z score was -0.05.
In the case of COC(C)(C)c1noc(-c2ccc3c(N)ncnc3c2)n1, the “% Inhibition” value is reported as -10% and the Z score is reported as 2.01.
With Cc1ccc2c(c1)CCN2CCc1ccc(C)nc1 the “% Inhibition” value was 9% and the Z score was -1.32.
O=C(NC1CCC(F)(F)CC1)c1ccn[nH]1 was tested, and the “% Inhibition” value was -30% and the Z score was 3.85.
CCCS(=O)(=O)CC(=O)Nc1ncc(C2CCCCC2)s1 was tested, and the “% Inhibition” value was -3% and the Z score was 0.28.
For C=CCCOCCN=C(N)N1CCC[C@H](C)C1, the “% Inhibition” value was -5% and the Z score was 0.61.
In the case of CCN(Cc1ccc(OC)cc1)C(=O)CCc1nc(-c2cc3ccccc3nc2O)no1, the “% Inhibition” value is reported as 13% and the Z score is reported as -2.49.
For O=C(CCCN1CCN(Cc2ccc(F)cc2)C(=O)C1=O)NCc1ccc2c(c1)OCO2, the “% Inhibition” value was -2% and the Z score was 0.37.
In the case of CCc1nnc(-c2cc(NC(=O)c3cnccn3)c(C)s2)o1, the “% Inhibition” value is reported as -30% and the Z score is reported as 2.93.
In the case of CC(C)C(=O)NC[C@@]12CCCC=C1N(CC1CC1)C(=O)CC2, the “% Inhibition” value is reported as -5% and the Z score is reported as 0.7.
With COc1ccc(N2CCN(c3cc(Nc4ccc(C)cc4)ncn3)CC2)cc1 the “% Inhibition” value was 1% and the Z score was -0.11.
In the case of O[C@H]1[C@H](NCc2ccc(Cl)c(Cl)c2)[C@H]2CO[C@H](O2)[C@@H]1n1cc(Cl)cn1, the “% Inhibition” value is reported as -9% and the Z score is reported as 1.4.
In the case of COCCc1noc([C@@H]2CCCN2C(=O)c2cc(-c3cccn3C)n[nH]2)n1, the “% Inhibition” value is reported as -3% and the Z score is reported as 0.32.
Cc1c(CN2CC[C@H](CNC(=O)NC(C)C)C2)[nH]c2ccccc12 was tested, and the “% Inhibition” value was -9% and the Z score was 1.48.
For O=C(Nc1ccc2c(c1)OCCO2)c1ccc2c(c1)N(Cc1ccc(F)cc1)C(=O)CO2, the “% Inhibition” value was -7% and the Z score was 1.29.
In the case of CC(C)C(=O)Nc1nnc(CC2=CCCCC2)s1, the “% Inhibition” value is reported as -4% and the Z score is reported as 0.47.
COc1ccccc1C1c2[nH]c3ccccc3c2C[C@H]2C(=O)N(CC(O)c3ccccc3)CC(=O)N12 (stereo not given in full) was tested, and the “% Inhibition” value was 30% and the Z score was -4.49.
For N#Cc1c(N)sc2c1CCN(c1cc(-n3ccnc3)ncn1)C2, the “% Inhibition” value was 4% and the Z score was -0.48.
In the case of Cc1cc(Cl)cc(C(=O)N[C@@H](CN)C2CCCC2)c1, the “% Inhibition” value is reported as -2% and the Z score is reported as 0.32.
In the case of C#CCOCC(O)CN(Cc1ccccc1F)C(C)CC (stereo not given), the “% Inhibition” value is reported as -1% and the Z score is reported as 0.13.
For Cc1cnc(C)c(-c2ccc(C(=O)NCC[C@H]3CCCN3C)cc2)n1, the “% Inhibition” value was -7% and the Z score was 0.91.
For C[C@H](Nc1nc(Nc2ccccc2F)nc(Nc2ccccc2F)n1)C(=O)NC1CCCCC1, the “% Inhibition” value was 2% and the Z score was -0.28.
With COc1ccc(S(=O)(=O)N2CCC[C@@H]2Cc2noc(-c3cnccn3)n2)cc1 the “% Inhibition” value was -3% and the Z score was 0.48.
For CC[C@H]1COCCN1C(=O)c1ccc(Cn2ccc3ccccc32)o1, the “% Inhibition” value was -4% and the Z score was 0.71.
For Cc1cc(N2CCN(c3cc4c(nn3)CCC4)CC2)nc(C2CC2)n1, the “% Inhibition” value was 10% and the Z score was -1.34.
In the case of C#Cc1ccc(NC(=O)c2scnc2CCc2ccncc2)cc1, the “% Inhibition” value is reported as -2% and the Z score is reported as 0.23.
With Cc1ccc(Cn2cccc2C(=O)C(=O)NCc2ccccc2)cc1C the “% Inhibition” value was 2% and the Z score was -0.18.
CCS(=O)(=O)c1cc(F)ccc1NC(=O)NC1CC1C (stereo not given) was tested, and the “% Inhibition” value was -9% and the Z score was 1.06.
For CN1C2CCC1CC(Nc1nccn3nc(C(F)(F)F)cc13)C2 (stereo not given), the “% Inhibition” value was -6% and the Z score was 0.71.
With CC1(C)CN(CC(=O)NCCc2ccccc2)C[C@]1(C)O the “% Inhibition” value was -17% and the Z score was 2.95.
With COC(C)(C)C(=O)Nc1ccc(-n2ccc(=O)cc2)nc1 the “% Inhibition” value was -8% and the Z score was 0.76.
In the case of CCN(Cc1c(CO)cnc(C)c1O)c1nc2ccccc2o1, the “% Inhibition” value is reported as 1% and the Z score is reported as -0.16.
O=S1(=O)C[C@@H]2[C@H](C1)N(CC1CC1)CCN2CCOc1ccc(F)cc1 was tested, and the “% Inhibition” value was -1% and the Z score was 0.12.
For CCCc1cc(C(=O)NC2CCCCCC2CO)[nH]n1 (stereo not given), the “% Inhibition” value was -9% and the Z score was 1.19.
With Cc1cccc(-c2nnc3c4ccccc4nc(N4CCN(S(=O)(=O)c5ccccc5)[C@@H](C)C4)n23)c1 the “% Inhibition” value was -2% and the Z score was 0.26.
For Cc1cccc(OCCN2CCCC(C3(C)NC(=O)N(C)C3=O)C2)c1 (stereo not given), the “% Inhibition” value was -12% and the Z score was 1.2.
COc1ccc([C@@H](NS(=O)(=O)c2c(C)n[nH]c2C)C2CC(O)C2)cn1 (stereo not given in full) was tested, and the “% Inhibition” value was -6% and the Z score was 1.21.
For CCOC(=O)c1sc(-n2nc(C)c(Cc3ccccc3Cl)c2O)nc1C, the “% Inhibition” value was -9% and the Z score was 1.2.
With O=C1c2ccc(Oc3ccc(Oc4ccc5c(c4)C(=O)N(CCCO)C5=O)cc3)cc2C(=O)N1CCCO the “% Inhibition” value was -3% and the Z score was 0.47.
In the case of Nc1nc2cc(C(=O)N3CCc4c(nc[nH]c4=O)C3)ccc2s1, the “% Inhibition” value is reported as -21% and the Z score is reported as 3.93.
For CCn1c(COC(=O)C(C)N2C(=O)C3CCCCC3C2=O)nc2cc(S(=O)(=O)N(C)C)ccc21 (stereo not given), the “% Inhibition” value was -9% and the Z score was 1.54.
With N#C[C@@H](NS(=O)(=O)CCC1CC1)C1CC1 the “% Inhibition” value was -1% and the Z score was 0.13.
With O=S(=O)(c1ccc(F)cc1)N1CCc2nnc(C3CC3)n2CC1 the “% Inhibition” value was -6% and the Z score was 1.09.
In the case of Cc1cccc(C)c1NC(=O)c1cccc(N2C(=O)C3C4CC(c5ccccc5)C(C4)C3C2=O)c1 (stereo not given), the “% Inhibition” value is reported as 26% and the Z score is reported as -2.95.
c1cnc2nc(N3CC4CCC3C4)c(N3CC4CCC3C4)nc2c1 (stereo not given) was tested, and the “% Inhibition” value was 20% and the Z score was -2.28.
For Cc1n[nH]c(C)c1Cc1nncn1-c1cccc2ccccc12, the “% Inhibition” value was -6% and the Z score was 0.75.
Cc1cc(C(=O)NCCCN2CCOCC2)on1 was tested, and the “% Inhibition” value was -9% and the Z score was 1.34.
For COc1cc(-c2nc(C)cnc2C)cc2c1OCCNC2, the “% Inhibition” value was -4% and the Z score was 0.54.
With Cc1nnc(NCCn2cccn2)c(C#N)c1C the “% Inhibition” value was -8% and the Z score was 1.03.
For Cc1ccccc1CNC(=O)c1ccc2c(c1)NC(=O)[C@@H]1CCCCN21, the “% Inhibition” value was -10% and the Z score was 1.38.
With O=C(Nc1nc2ccccc2s1)[C@@H]1CCCCN1S(=O)(=O)c1ccc(Cl)s1 the “% Inhibition” value was 11% and the Z score was -1.23.
In the case of Cc1ccc(N2CCC(N3C(=O)[C@H]4CCCN4C3=O)CC2)nc1, the “% Inhibition” value is reported as -8% and the Z score is reported as 0.81.
For Cc1n[nH]c(=O)c(C(=O)Nc2ccc(F)cc2F)c1C, the “% Inhibition” value was -8% and the Z score was 1.64.
In the case of CN1CCN(c2nc(N(C)C)c3ccccc3n2)CC1, the “% Inhibition” value is reported as -6% and the Z score is reported as 0.88.
For C[C@H]1CCc2sc(C(=O)N3CCn4nc(CCC(=O)O)cc4C3)cc2C1, the “% Inhibition” value was 4% and the Z score was -0.51.
For Cc1c(C(=O)N2CCN(C3CCC3)C[C@H](C)C2)cnn1C(C)C, the “% Inhibition” value was -1% and the Z score was 0.26.
CCOc1cc(CNCc2ccccc2)ccc1OCCOc1ccc(F)cc1 was tested, and the “% Inhibition” value was 6% and the Z score was -0.74.
For CCN(CC)C(=O)CCc1ccc(OC)cc1, the “% Inhibition” value was -1% and the Z score was 0.18.
With Cc1oc2ncn(CC(C)C)c(=O)c2c1C(=O)Nc1ccccn1 the “% Inhibition” value was -8% and the Z score was 1.45.
For C[C@H](CC(=O)O)CC(=O)N1CC2(CCOCC2)c2ccc(Br)cc21, the “% Inhibition” value was -12% and the Z score was 1.11.
For Cn1nccc1S(=O)(=O)NC1CCCC(C(F)(F)F)C1 (stereo not given), the “% Inhibition” value was 2% and the Z score was -0.29.
CC[C@H](NS(=O)(=O)c1cnn(C2CCCC2)c1)c1nc(C)c[nH]1 was tested, and the “% Inhibition” value was -11% and the Z score was 1.43.
In the case of O=C(c1cccn2c(=O)c3cc(Cl)ccc3nc12)N1CCN(c2cccc(Cl)c2)CC1, the “% Inhibition” value is reported as -10% and the Z score is reported as 1.23.
In the case of O[C@H]1[C@H](NCC2CCCC2)[C@H]2CO[C@H](O2)[C@@H]1n1cnc2ccccc21, the “% Inhibition” value is reported as 9% and the Z score is reported as -1.09.
For COCc1nccc(N2CCC(N(C)C)C2C)n1 (stereo not given), the “% Inhibition” value was -10% and the Z score was 1.04.
COc1ccc(Cl)cc1NC(=O)c1ccc(OC)c(-c2ccccn2)c1 was tested, and the “% Inhibition” value was -19% and the Z score was 1.94.
COc1ccccc1-c1cc(CN(CC(C)C)C(=O)C2CCCC2)no1 was tested, and the “% Inhibition” value was -13% and the Z score was 1.64.
For Cc1nc(NC(C)C)sc1C(=O)n1ccnc1, the “% Inhibition” value was -13% and the Z score was 1.64.
CCc1nnc2nc(N3CCN(C(=O)c4ccc(C)cc4)CC3)cc(C)n12 was tested, and the “% Inhibition” value was -14% and the Z score was 2.7.
In the case of CCOC(=O)C[C@H]1C(=O)NCCN1C1CCCCC1, the “% Inhibition” value is reported as -9% and the Z score is reported as 1.62.
In the case of CCS(=O)(=O)N(C)C1CCN(C(=O)CCC2CCCCC2)CC1, the “% Inhibition” value is reported as -8% and the Z score is reported as 1.01.
In the case of CC(C)(C)c1cnc(COc2ccccc2-c2nnc[nH]2)o1, the “% Inhibition” value is reported as -11% and the Z score is reported as 1.51.
C#CCN1CCC[C@@H]1COC(=O)c1cnn(C)c1C was tested, and the “% Inhibition” value was 38% and the Z score was -3.85.
In the case of O=C(NCCCN1CCCC1=O)NC1CCCC1, the “% Inhibition” value is reported as -5% and the Z score is reported as 0.53.
In the case of COC(=O)c1ccc(N2C[C@@H]3OC(=O)N(Cc4ccccn4)[C@@H]3C2)nc1, the “% Inhibition” value is reported as -11% and the Z score is reported as 1.16.
In the case of Cc1sc(-c2ccccc2F)nc1C(=O)Nc1nc2ccccc2[nH]1, the “% Inhibition” value is reported as 1% and the Z score is reported as -0.09.
For CCOC(=O)CN1C(=O)C2(NC(C)C3C(=O)N(c4cccc(Cl)c4)C(=O)C32)c2ccccc21 (stereo not given), the “% Inhibition” value was -2% and the Z score was 0.35.
In the case of COc1cc(F)c(C(=O)N(C2CC2)[C@@H](C)c2cccnc2)cc1OC, the “% Inhibition” value is reported as -6% and the Z score is reported as 0.88.
With Cc1cc(C(=O)NCc2nccn2CCCc2ccccc2)on1 the “% Inhibition” value was 10% and the Z score was -1.56.
Cn1cncc1C(=O)NCC1CCN(C(=O)C(=O)c2cccn2C)CC1 was tested, and the “% Inhibition” value was -14% and the Z score was 1.85.
